From PubChem BioAssay AID651820 (National Center for Advancing Translational Sciences (NCATS), 2012)
Out of some 340,000 compounds screened, about 12,000 (3.5%) were called active. The shares of active, inactive and inconclusive entries below differ from those in the screen. Calls follow the shape of the dose curve; as a rule, active = well fitted inhibition curve with a large enough effect; inconclusive = small, poorly fitted or top-dose-only effect, or another doubt; inactive = no such curve, though single readings can be large or run the other way. Potencies of inconclusive entries are left out as doubtful fits.

experiment: qHTS Assay for Inhibitors of Hepatitis C Virus (HCV); details: Huh7.5.1 HCVcc-Cre (HCVcc is cell-culture hepatitis C virus) infection, luciferase reporter, 44 h; activity change, negative = inhibition: at 41.8 µM (top of the series) unless noted
Method in brief: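 Cells (1,000/well) were plated 4 h before compound, then infected with HCVcc-Cre virus (~0.5 moi). After 44 h further culture, infection was read as luciferase luminescence following a 15 min substrate incubation at room temperature.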
% is scaled to controls: 0 for no effect and ±100 for the full control effect; potency is read from the fitted curve at half-maximal effect; tags tell the direction and shape of the fitted curve.

| SMILES | Potency | activity change, negative = inhibition |
| --- | --- | --- |
| COc1ccc(-c2ccc(-c3noc(-c4ccco4)n3)c(OC)n2)cc1 | inconclusive [inhibitor, full curve, poor fit] | – |
| C=CCOC(=O)/C(=C\c1ccccc1)NC(=O)c1ccc(C)cc1 | – | inactive: -7.2% |
| COC(=O)c1cc2sccc2n1CC(=O)Nc1ccc(OC)c(OC)c1OC | inconclusive [inhibitor, single point] | – |
| COC(=O)/C(C#N)=C/c1c(N2CCN(c3ccccc3)CC2)nc2ccccn2c1=O | – | inactive: -0.847% |
| COc1ccc(NC(=O)C2CCCN(S(=O)(=O)c3ccccc3)C2)c(OC)c1 (stereo not given) | inconclusive [inhibitor, single point] | – |
| COc1ccc(CCNS(=O)(=O)c2ccc3c(c2)NC(=O)C(C)S3)cc1OC (stereo not given) | active: 25.1 µM | – |
| CN(C)CCOC1c2ccccc2C=Cc2ccccc21 | inconclusive [inhibitor, partial curve] | – |
| COc1ccc(C(=O)Nc2ccc(S(=O)(=O)NC(C)(C)C)cc2)cc1[N+](=O)[O-] | inconclusive [inhibitor, partial curve] | – |
| COc1ccccc1CNC(=O)c1nccnc1CO | – | inactive: 13.9% |
| COc1cc(C2c3cc4c(cc3CC3COC(=O)C32)OCO4)cc(OC)c1O (stereo not given) | inconclusive [inhibitor, single point] | – |
| Cc1nc2cc(C(=O)N3c4ccccc4CC3C)ccc2s1 (stereo not given) | inconclusive [inhibitor, partial curve] | – |
| Cc1cc(=O)[nH]c(SCCOc2ccc3c(c2)CCC3)n1 | – | inactive: 7.78% |
| O=c1cc(N2CCCCCC2)[nH]c(=O)n1-c1ccccc1Cl | inconclusive [inhibitor, single point] | – |
| CC(C)C[C@H](CO)Nc1nc(Nc2cccc(Cl)c2)c2ncn(C(C)C)c2n1 | inconclusive [inhibitor, single point] | – |
| COc1ccc(C)cc1NC(=O)CN1CCN(c2ccccc2F)CC1 | inconclusive [inhibitor, partial curve] | – |
| c1ccc2oc(SCc3nc4ccccc4s3)nc2c1 | inconclusive [inhibitor, partial curve] | – |
| Cc1ccccc1-c1nc(CN2CCC(C(=O)NCCC3=CCCCC3)CC2)c(C)o1 | active: 6.31 µM | – |
| O=C(c1ccccc1)N1CCN(c2ccc(NCc3ccc4c(c3)OCO4)cc2)CC1 | active: 11.2 µM | – |
| COc1ccc(C(O)P(=O)(OC2CCCCC2)c2ccc(N(C)C)cc2)cc1OC (stereo not given) | – | inactive: 17.8% |
| Cn1c(=O)c2c(nc(NCCO)n2CCc2ccccc2)n(C)c1=O | inconclusive [inhibitor, partial curve, poor fit] | – |
| Cc1ccc(S(=O)(=O)c2cnc(-c3ccccc3)nc2N2CCCCC2)cc1 | inconclusive [inhibitor, partial curve] | – |
| CCc1ccccc1-n1c(SCC(=O)Nc2ccc3c(c2)OCCO3)nc2[nH]ncc2c1=O | inconclusive [inhibitor, single point] | – |
| Cc1nc(NC(=O)CN2CCOCC2)sc1-c1ccccc1 | inconclusive [inhibitor, single point] | – |

| SMILES | Potency | activity change, negative = inhibition |
| --- | --- | --- |
| COc1ccc(-c2nc(CSCC(=O)NCc3ccc4c(c3)OCO4)c(C)o2)cc1OC | inconclusive [inhibitor, partial curve] | – |
| CCC(=O)NC(=S)Nc1ccc(NC(=O)COc2ccc(Cl)cc2Cl)cc1 | inconclusive [inhibitor, full curve] | – |
| CCN(CCC#N)c1ccc(/C=N/Nc2nc(C)cc(=O)[nH]2)c(C)c1 | inconclusive [inhibitor, single point] | – |
| Cc1ccc2nc(-c3ccc(NC(=O)CNC4CC4)cc3)sc2c1 | inconclusive [inhibitor, partial curve] | – |
| Cc1ccccc1C(=O)NNC(=O)C1CC(=O)N(Cc2ccccc2)C1 (stereo not given) | – | inactive: -46.9% |
| CCOc1ccc(-c2cn3ccccc3n2)cc1 | – | inactive: -5.94% |
| CC(=O)c1c(C)[nH]c(C(=O)Nc2ccc(Cl)cc2)c1C | inconclusive [inhibitor, single point] | – |
| CCOc1ccc(NC(=O)N2CCN(c3nc4ccccc4s3)CC2)cc1 | inconclusive [inhibitor, partial curve] | – |
| CCOCCn1c(CN2CCc3ccccc3C2)nc2c1c(=O)n(C)c(=O)n2C | inconclusive [inhibitor, partial curve] | – |
| Cc1cccc2sc(NNC(=O)c3ccc(S(=O)(=O)N4CC(C)CC(C)C4)cc3)nc12 (stereo not given) | inconclusive [inhibitor, full curve] | – |
| Cc1nc(-c2ccc(F)cc2)c(CC(=O)N(C)CC(=O)Nc2ccc(Br)cc2C)s1 | inconclusive [inhibitor, partial curve] | – |
| COC(=O)C1=CN(Cc2ccc(OC)cc2)C=C(C(=O)OC)C1c1ccsc1 | – | inactive: -18.6% |
| COc1ccccc1CC(=O)N(Cc1ccccc1)c1ccc(C)cc1 | inconclusive [inhibitor, single point] | – |
| COCCCC1CCN(C(=O)c2cc(COc3ccc(C)nc3)on2)CC1 | inconclusive [inhibitor, partial curve] | – |
| CCCc1sc(N)nc1-c1ccc(C)cc1 | inconclusive [inhibitor, single point] | – |
| COc1ccc(CNC(=O)/C=C/c2ccc(S(=O)(=O)N3CCOCC3)cc2)cc1 | – | inactive: -5.53% |
| O=C(Nc1ccc(Cl)cn1)c1cccc(S(=O)(=O)N2CCCCC2)c1 | – | inactive: -11.2% |
| COc1cc(CC(=O)Nc2nc(-c3ccc(F)c(F)c3)cs2)cc(OC)c1OC | active: 10 µM | – |
| COc1ccc(Cl)cc1NC(=O)c1cnccn1 | inconclusive [inhibitor, partial curve] | – |
| COc1ccc(-c2cc(C(F)(F)F)nc(S(=O)(=O)CCCC(=O)Nc3cccc(O)c3)n2)cc1OC | active: 11.2 µM | – |
| N#Cc1nc(-c2ccc(F)cc2)oc1N1CCCCC1 | – | inactive: -11.9% |
| CC(Sc1nn(-c2ccc(F)cc2)c(=S)s1)C(=O)c1c(N)n(C)c(=O)n(C)c1=O (stereo not given) | inconclusive [inhibitor, partial curve] | – |
